{"source": "paper PMC12136788", "binders": {"B1": {"name": "chr2:119552488:119552489:+_ENSMUSG00000027304_ENSMUST00000028767|mus_mus|motif|central (ssRNA)", "RNA": "GGGAGUUCUACAGUCCGACGAUCAAACAUCGCUUCUUUCCACUUCAUGAAUUCACUUUCAGUGAAUUCUUGGUUGGACACAAACUCGGGGCGGAACACUCGCUGGUCAUUGCCAUGCCGUAGCUGGAGCCCUUUAUUUGUUCUCAACAGAGGAUUGAGCAUCA"}, "B2": {"name": "chr7:56126341:56126342:+_ENSG00000146731_ENST00000540286|hu_mus|hu_hu_hu_mus_True|1_98 (ssRNA)", "RNA": "GGGAGUUCUACAGUCCGACGAUCCAUGUUUCUCCUCUUAGCUCUGCGCAGAGCUACGAUCCCUUCUUUCGCAAGGGCAUCUAAGGAAAAGGGGUCAAUCCCCUUUUGAUUAAUAACGACAAAUCCUUUAUCUGAGUCGCCACACAACAGAGGAUUGAGCAUCA"}, "B3": {"name": "chr17:37088456:37088457:-_ENSMUSG00000036398_ENSMUST00000040402|mus_hu|motif|central (ssRNA)", "RNA": "GGGAGUUCUACAGUCCGACGAUCGUAACCGUUGUCUCAGUGACGGUCUCGCUCAGCCCAGCCCCUGCCUCGGCCAUGGCGGAGGCUCAGGACAGGGAGGAGAGGAGGAAGGGGGAUGAGACACCCUUCCCUUUUUCUGUCGCUCAACAGAGGAUUGAGCAUCA"}, "B4": {"name": "chr10:1038518:1038519:+_ENSG00000107937_ENST00000545048|hu_hu|hu_hu_hu_mus_False|1_68 (ssRNA)", "RNA": "GGGAGUUCUACAGUCCGACGAUCCAGUCUGUCAUGGUAAUUCUGUUGAGUAAAUUUGACUUUUCUCAUGUAAAAAUGUCGAAUCCGAUGAAUUUGAUAAUGUUUAUGAAUAACCGUUGGAGUCUUUCGUUGAGUCUUCGACAACAACAGAGGAUUGAGCAUCA"}, "B5": {"name": "chr4:25749455:25749456:-_ENSG00000091490_ENST00000264868|hu_hu|hu_hu_hu_mus_False|88_98 (ssRNA)", "RNA": "GGGAGUUCUACAGUCCGACGAUCGCACUAUGACCUCCCCUAGAAAAAUUCAAGGAGAAAAAUGUAAACCAAUGUACAAUGUUAUCGCCUUCCCUGUGUGUGGAGUGUUUGUCUCAAGGCUCCUUCUAGCUGCUGGAUUUGGGACAACAGAGGAUUGAGCAUCA"}, "B6": {"name": "chr7:141441981:141441982:+_ENSG00000106028_ENST00000265304|hu_mus|hu_hu_hu_mus_False|48_78 (ssRNA)", "RNA": "GGGAGUUCUACAGUCCGACGAUCCUCAUGUCUUACAAACUGACGAAAUACCUGUAAUACAGGUCUUCGAAACAUGGCUUCUGUUUUCUUUUCUUACUAAUCUUUAGGCUUUUCCUAAAGGAAAGAAAGAAAAGAGAAAAAUGACAACAGAGGAUUGAGCAUCA"}, "B7": {"name": "chr8:8869160:8869161:+_ENSG00000104626_ENST00000250263|hu_mus|FALSE|FALSE (ssRNA)", "RNA": "GGGAGUUCUACAGUCCGACGAUCGAUUUCAUGUAGGAACUCAGCUGGGUUCCCCUCUUCACAAGUAGCCUCAAAGUCAAUGAUACAAAUGUAGUCAUAGUAACUGUCCCCAGCGGAGCUCUCUUUCAGCAUCAACUUCUGCUUCAACAGAGGAUUGAGCAUCA"}, "B8": {"name": "chr5:38528984:38528985:-_ENSMUSG00000029126_ENSMUST00000031009|mus_mus|motif|central (ssRNA)", "RNA": "GGGAGUUCUACAGUCCGACGAUCGAUUCAGAUUGAAACAUAAACAUACUUUUCUUACAAAGAUUGUGGACUUAGAUAUUCGGUUUGCAAGGUGCCACAUCAGCCCCCCCCACCAGCCGUCCUGCCCCUUCCCACAGCACAGGACAACAGAGGAUUGAGCAUCA"}, "B9": {"name": "chr11:20128097:20128098:-_ENSMUSG00000044066_ENSMUST00000050611|mus_mus|FALSE|FALSE (ssRNA)", "RNA": "GGGAGUUCUACAGUCCGACGAUCUGCUUUUGACCAAUUCUAGGUUUUAUAGGAUAUUUUACAUUUAACUUAAAUUAUUUGCUAGAAAAGUUUUGUUUUAGCCUCUUGAAAGCACUUUAUGUACCAUGUACAGUAUAAGAAAUACAACAGAGGAUUGAGCAUCA"}, "B10": {"name": "58473482_58473602_2635_ncRNA_ENSMUSG00000026034_ENSMUST00000129577|mouse|control|control (ssRNA)", "RNA": "GGGAGUUCUACAGUCCGACGAUCCUUCUUCUUCAAAAGGGUUUUAUGGCACCUGCUAGCCUUGAACUCAGAGAUCCGCCUGCCUCUGCCUUGGAAAUGCUGGGGAGUUAAAGGUGUCUACCAUCCCCUGACCUUUUAAACCACCAACAGAGGAUUGAGCAUCA"}, "B11": {"name": "chr13:111190716:111190717:+_ENSMUSG00000021701_ENSMUST00000022212|mus_mus|FALSE|FALSE (ssRNA)", "RNA": "GGGAGUUCUACAGUCCGACGAUCCAGUUCCAAGUCUUCCAACUGAAGACGCUCUCAACAGAGAGAACUUCAGAGUCAAUGCAUCUUUCUGAAAAACUGUCCCAUAAACCUUUUCACGACAGGUAUCUCAGGGAAAACUGCACUCAACAGAGGAUUGAGCAUCA"}, "B12": {"name": "chr7:75932113:75932114:+_ENSG00000106211_ENST00000248553|hu_hu|hu_hu_hu_mus_False|18_18 (ssRNA)", "RNA": "GGGAGUUCUACAGUCCGACGAUCCUGCGACCACUCAUCGGGCAACCGGGGCACCCCGAAAGCUUGAUCGAAGAGGCGGCUGUGUGCAGGGUACCAGUCCCGGAAUGGUUCCCAGCUGCCCCGCAGGAGCAGCGAGAAGGGCACCAACAGAGGAUUGAGCAUCA"}, "B13": {"name": "chr1:184392483:184392484:+_ENSMUSG00000026510_ENSMUST00000117245|mus_hu|motif|central (ssRNA)", "RNA": "GGGAGUUCUACAGUCCGACGAUCUUUUAAAGUCAGCUAUGAUCUUGACAAAUAUUACGGGUAAGUCUGUAGCAAGUUUCGGAUUUCUGAGAUACAAAAGACAAUAAAUACAGAUUAAAAUUCAGCCUACAAACAAGAUUCUACCAACAGAGGAUUGAGCAUCA"}, "B14": {"name": "50188117_50245300_635_CDS_ENSG00000121274_ENST00000436909|human|control|control (ssRNA)", "RNA": "GGGAGUUCUACAGUCCGACGAUCCCGCAUCUUCUCCUCCUCAGGUCUUGGAGACAUGUAUUCAUAAAAAUCACUGAUUUCUUCAUGCAGACCCACGACUCCCUGGUUGUAGUUCCUCCGUUUCCACGGGGUCCCGCUGUACACCAACAGAGGAUUGAGCAUCA"}, "B15": {"name": "chr14:89343726:89343727:+_ENSG00000165533_ENST00000346301|hu_hu|FALSE|FALSE (ssRNA)", "RNA": "GGGAGUUCUACAGUCCGACGAUCAGACAUAGUGCUUUUUUCCCCUUGCAUAAUGCUGCUUCAUAAGAACAUAUGUGGUCUAAGGAACAAUCAGAGCAUAGCAAAAUGCUGCCUUAAUUGUUUAAUUAAAUGUUGUGUGUCCACCAACAGAGGAUUGAGCAUCA"}, "B16": {"name": "chr1:133829981:133829982:+_ENSMUSG00000026434_ENSMUST00000062264|mus_mus|motif|central (ssRNA)", "RNA": "GGGAGUUCUACAGUCCGACGAUCGAACUGUAAUUAGAAAAUAUACCUUCAAUCUAAUGAGUUAGUUUUAAAAGGAAUUCGGAACAAGUCCAAUCAGACACACCUUUUACACAAGUAACGUAGAAGAUAGUAUUAUUUCUCAAUCAACAGAGGAUUGAGCAUCA"}, "B17": {"name": "chr18:33606911:33606912:-_ENSG00000141425_ENST00000399022|hu_hu|FALSE|FALSE (ssRNA)", "RNA": "GGGAGUUCUACAGUCCGACGAUCUUCCAAUUUAUGCUCUUUCUCUGCAAGGGCUUCCUUUUGACAACGAAGAAAAUCUGCUAACAUUCGAGUGAGUUGCUUUCUAUCAUCUAUUUCUGCCGCCAAUCUGCCAUUGUAAUCUGCCAACAGAGGAUUGAGCAUCA"}, "B18": {"name": "chr3:10015032:10015033:+_ENSMUSG00000027533_ENSMUST00000029046|mus_mus|mus_mus_mus_hu_True|58_98 (ssRNA)", "RNA": "GGGAGUUCUACAGUCCGACGAUCGUUUUUACCAUCACACGUAAUGAUACAAUCUGGCUUGGCCAUUGCGCCCAUUUUCCUAAGAGCUAUUCCCACUCCUAGCUCCUUCAUGUAUUCAUCAAAGCCUUUGCUGUCCACCAGGCGCAACAGAGGAUUGAGCAUCA"}, "B19": {"name": "chr11:75578393:75578394:+_ENSMUSG00000020849_ENSMUST00000067664|mus_mus|motif|central (ssRNA)", "RNA": "GGGAGUUCUACAGUCCGACGAUCCAAUACAGUAAUGCUGAAAAAGCCUCUAUGCAGUCCUGUUAGUGUCGUAAAGAACCGGAAGCUGGGACCAGUAAAAUCCACAGAAAUUCACUCUUGCCUUAAGAACUUCUGAAAACUGUUCAACAGAGGAUUGAGCAUCA"}, "B20": {"name": "chr2:32086683:32086684:+_ENSMUSG00000039262_ENSMUST00000036691|mus_mus|FALSE|FALSE (ssRNA)", "RNA": "GGGAGUUCUACAGUCCGACGAUCUGACCACUGGGGACAGCAGAGCAGAGAGAGGACAGCGAGGACCAUAUAAAAGUUCAGCUAUACAGAUGUAGCUAGCAUUUUGUUCUCAUUUCCCCUUUGUAAAAACCUUAGCUGCUUUUUCAACAGAGGAUUGAGCAUCA"}, "B21": {"name": "chr6:41757443:41757444:+_ENSG00000214736_ENST00000398881|hu_mus|hu_hu_hu_mus_False|88_98 (ssRNA)", "RNA": "GGGAGUUCUACAGUCCGACGAUCGAACCGUGCAGAGACCAGAGAAUGGAAUUCUGCGGGGGAUGGGGGGGCAGUGGGGGGGGGUUCAGGCAAGGAGAGGGAGUCAACUUCAGCUGCCACUCAGGUAGGAUCUUGUGGUCACAGCAACAGAGGAUUGAGCAUCA"}, "B22": {"name": "chr17:23961646:23961647:+_ENSMUSG00000039218_ENSMUST00000088621|mus_mus|FALSE|FALSE (ssRNA)", "RNA": "GGGAGUUCUACAGUCCGACGAUCGCAUUUCUCAUUUUUAUUUGACAGAAAAAGUUGCUUUUACUGUACAGAUUUUAAAAAACCAAAAUGCCUUAAACAAAGUUGGGGGGGAGAGGGCCUCACAACCUUGUAAGGGGGUGCAGCCAACAGAGGAUUGAGCAUCA"}}, "note": "The other results are listed elsewhere or left out.", "data": [{"target": "T1, UNK ZnF1-3 (human, UniProt Q9C0B0 31-174)", "T1 sequence": "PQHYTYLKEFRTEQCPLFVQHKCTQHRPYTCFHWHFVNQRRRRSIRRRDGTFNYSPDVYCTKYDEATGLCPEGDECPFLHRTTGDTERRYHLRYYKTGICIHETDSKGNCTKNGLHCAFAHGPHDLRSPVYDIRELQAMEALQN", "assay": "nsRBNS (natural sequence RNA bind-n-seq); RBNS binding buffer (assumed for nsRBNS): 25 mM Tris pH 7.5, 150 mM KCl, 3 mM MgCl2, 0.01% Triton X-100, 500 ug/ml BSA, 20 U/ml SUPERase-In, 4 C; UNK is unkempt and MSI1 is Musashi-1; names of the RNAs are library labels; protein concentration not given here; high values mean tight binding", "units": {"binding signal": "enrichment R"}, "values": [{"binder": "B1", "binding signal": 0.606}, {"binder": "B2", "binding signal": 0.833}, {"binder": "B3", "binding signal": 0.474}, {"binder": "B4", "binding signal": 0.604}, {"binder": "B5", "binding signal": 1.12}, {"binder": "B6", "binding signal": 0.396}, {"binder": "B7", "binding signal": 0.925}, {"binder": "B8", "binding signal": 1.29}, {"binder": "B9", "binding signal": 0.709}, {"binder": "B10", "binding signal": 1.24}, {"binder": "B11", "binding signal": 0.665}, {"binder": "B12", "binding signal": 0.89}, {"binder": "B13", "binding signal": 1.19}, {"binder": "B14", "binding signal": 0.992}, {"binder": "B15", "binding signal": 1.74}, {"binder": "B16", "binding signal": 0.788}, {"binder": "B17", "binding signal": 0.639}, {"binder": "B18", "binding signal": 0.645}, {"binder": "B19", "binding signal": 1.36}, {"binder": "B20", "binding signal": 1.28}, {"binder": "B21", "binding signal": 1.56}, {"binder": "B22", "binding signal": 0.68}]}]}
